Test results taken from the supplement of paper PMC3334620.
Over roughly 33,000 sequences, “E-score (-0.5 to 0.5)” has its median near -0.016; the highest 2% begin near 0.32. This is one part of the list.

biological target: T1, Stp1 (UniProt B3LFK1); assay: PBM E-score (8-mer binding enrichment) (E-score (-0.5 to 0.5)); higher = stronger / more preferred TF binding; most listed sequences are background and not binding sites; conditions: protein concentration: 200 nM; construct: GST-full length
T1 sequence: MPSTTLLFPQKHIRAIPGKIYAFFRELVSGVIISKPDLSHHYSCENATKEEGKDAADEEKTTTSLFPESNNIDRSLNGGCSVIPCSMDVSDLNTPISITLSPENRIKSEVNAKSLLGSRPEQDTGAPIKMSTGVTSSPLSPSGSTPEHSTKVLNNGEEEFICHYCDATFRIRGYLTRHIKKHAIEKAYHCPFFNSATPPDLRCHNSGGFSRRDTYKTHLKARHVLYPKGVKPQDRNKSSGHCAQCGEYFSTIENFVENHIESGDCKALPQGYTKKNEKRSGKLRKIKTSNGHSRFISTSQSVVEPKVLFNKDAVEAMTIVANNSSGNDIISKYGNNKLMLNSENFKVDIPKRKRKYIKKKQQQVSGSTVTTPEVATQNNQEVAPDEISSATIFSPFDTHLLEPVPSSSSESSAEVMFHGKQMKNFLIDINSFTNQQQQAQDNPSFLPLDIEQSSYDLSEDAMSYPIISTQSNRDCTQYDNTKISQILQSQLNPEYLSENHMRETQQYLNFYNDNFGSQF
Procedure, shortened: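 Full-length yeast transcription factors or their DNA-binding domains, GST-tagged and expressed with PURExpress, were applied at about 100-200 nM to universal all-10-mer Agilent arrays. These arrays had been made double-stranded by primer extension on fresh or once-stripped slides. Detection used fluorescent anti-GST, normalisation used masliner, and E-scores for ungapped eight-base words pooled with reverse complements came from the Universal PBM Analysis Suite.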

Row | Sequence | PBM E-score
1 | CGCGCACG | 0.154
2 | GACATGAA | 0.00806
3 | CGCTTTCA | 0.0783
4 | CTACAAGA | -0.228
5 | CGTCTGTC | 0.0901
6 | AATACTCG | -0.0553
7 | CGTTTTCC | -0.00202
8 | CCGCAGAA | 0.207
9 | GCATACGA | 0.0766
10 | ATGACCCG | -0.332
11 | TCTTTGCA | 0.165
12 | AAGCGTGC | 0.116
13 | CATGTAGC | -0.128
14 | CTGCCTAA | -0.00216
15 | GGAACAGA | -0.057
16 | ATTTATGG | 0.19
17 | CACTTGCC | -0.0372
18 | GCCACCAC | 0.0181
19 | CTCAACCC | -0.204
20 | CATGACCC | -0.227
21 | CTCAGGTC | -0.196
22 | CGGGGAAA | 0.0657
23 | TGCCATAA | 0.0297
24 | GAAGTAAC | 0.0703
25 | CACTTACC | 0.0302

Row | Sequence | PBM E-score
26 | AGTAGAAA | 0.0577
27 | CGATGTTA | 0.0738
28 | CCTGTGCG | -0.0069
29 | CAACTTAA | -0.00078
30 | GTGTGATA | 0.236
31 | AGGTTTAT | 0.0618
32 | TACCCTAA | -0.0225
33 | GTGCAACA | -0.0404
34 | ATGATCGA | -0.0596
35 | ACGGATCC | 0.163
36 | CAATGTGC | 0.0858
37 | GATATGCA | 0.00421
38 | GATATCCC | -0.11
39 | AATTCACC | 0.15
40 | AAGATGGC | 0.0565
41 | GCGACATA | 0.195
42 | AGGGTACC | -0.349
43 | AAGGAGCG | -0.183
44 | GACGTTAC | 0.195
45 | GTCTGGAA | -0.0937
46 | ATCCCTTA | -0.136
47 | TCTTCAAA | 0.109
48 | CCATGCTA | -0.117
49 | ATCTGTCG | -0.00104
50 | GCCGTCTA | 0.429

Row | Sequence | PBM E-score
51 | CATGTTGA | 0.158
52 | AAGACGTG | -0.0888
53 | GCATAGTA | 0.211
54 | AGATTGAT | 0.121
55 | CTCAGTTC | -0.0626
56 | AGGCACGG | 0.397
57 | ATAATGAG | 0.0115
58 | CACACCTG | -0.16
59 | GCCTACCA | -0.0464
60 | AAACTGAT | 0.0989
61 | AACCAGTA | 0.0911
62 | ACCATAGA | 0.0359
63 | CGTCGATC | 0.0306
64 | CTCATCGC | -0.0979
65 | GTGCATGA | 0.0843
66 | CTAACAAA | 0.12
67 | TACACACA | 0.202
68 | GGCGTGCA | -0.00279
69 | GCTAACAA | 0.201
70 | AAGTCTTA | -0.2
71 | GTAACAAC | 0.037
72 | CGTAAGGC | 0.358
73 | CAGGGGAA | -0.305
74 | CGTTCGCC | 0.206
75 | TCCCCGGA | -0.195

Row | Sequence | PBM E-score
76 | GAACCGCC | -0.0162
77 | CTAGTTTC | -0.11
78 | CACAATCA | 0.0635
79 | GGATACAC | -0.11
80 | ATCTTGCC | 0.123
81 | AGACGCAT | -0.157
82 | CCATAAAG | -0.0597
83 | ATCCGCAC | 0.302
84 | TCCTCGAA | 0.0519
85 | GAAAATTC | 0.141
86 | ACTTGTAG | -0.0616
87 | GACTTAGC | -0.184
88 | ACAGTGCC | 0.321
89 | ACCTCGGC | 0.15
90 | CCTAATGC | 0.00991
91 | ACGGAGCC | 0.0815
92 | AGGCGTAC | 0.137
93 | AACGGACA | 0.152
94 | TAATACTA | 0.0794
95 | ACTGACTG | 0.0981
96 | ACCCGAAT | -0.13
97 | AATTTTTC | 0.159
98 | CGCACTCC | -0.172
99 | ATCTAAAA | 0.0644
100 | CTGATAAC | 0.0243

Row | Sequence | PBM E-score
101 | AAACCTCG | -0.129
102 | ACAGTCCT | -0.0842
103 | ATCCTCAC | 0.0973
104 | ATTGAAGA | -0.116
105 | AATTCACT | 0.185
106 | AGCGCGCG | 0.196
107 | CGACCGTC | -0.185
108 | ACAACCGA | 0.114
109 | ATTATGCC | 0.283
110 | CAGACATG | -0.0958
111 | AGCTACCC | -0.182
112 | TGGAATAA | 0.00418
113 | ATAGGAGG | -0.0798
114 | AGTACCAT | -0.0732
115 | GCTCGCTA | -0.092
116 | AGTGAGAA | -0.0155
117 | CGTGTAAC | 0.0662
118 | ATCCCTCC | -0.277
119 | CCCTCGCG | 0.115
120 | TAGTGCGA | -0.0834
121 | TAGCTTGA | -0.2
122 | ATAATTGA | 0.0846
123 | GACGAAGA | 0.133
124 | ATAAATAT | 0.279
125 | CTGAGGGC | -0.237

Row | Sequence | PBM E-score
126 | CGGTATCC | -0.0671
127 | TTACCCAA | -0.193
128 | ACCACACT | -0.0376
129 | GCGGCCAC | 0.188
130 | CGGTCGCC | 0.0981
131 | CTACACCC | -0.227
132 | GAGATTAC | -0.0779
133 | CGCACGGA | 0.39
134 | TCGCACCA | 0.0289
135 | ACCCGGAT | -0.231
136 | ACACGGCG | 0.488
137 | CGGACCAG | 0.0174
138 | CAAAGCGC | 0.165
139 | CGCAATTC | 0.101
140 | ACGCGTAA | 0.0664
141 | AGGCTCAA | 0.0744
142 | ATGAATGG | -0.00478
143 | AACCTCAT | -0.0102
144 | GCAACAGA | 0.152
145 | GGCTATAA | -0.00488
146 | AGATAGAT | -0.0201
147 | ATCTCACG | 0.015
148 | ATCCTTAG | -0.0812
149 | ATCCCGCC | -0.00695
150 | ACCACAGG | -0.201

Row | Sequence | PBM E-score
151 | CATTTTCC | 0.114
152 | GGCACGCC | 0.238
153 | CAAAAGGC | 0.359
154 | TTAAACAA | 0.0407
155 | CATCCGGG | -0.226
156 | AATGAACA | 0.0344
157 | GTATACGA | 0.0385
158 | GCATGCTA | -0.218
159 | ACGACCCA | -0.238
160 | CGGCCACA | 0.272
161 | GAACTTTA | -0.00687
162 | GACGAGCC | 0.00102
163 | CGGGCCTA | -0.291
164 | ATGTATAC | 0.0457
165 | CATTGATC | 0.0698
166 | CTTTCTCC | -0.244
167 | CTAATCAC | 0.171
168 | CTGATGCC | 0.187
169 | ACTACATA | -0.0145
170 | GTCTCTAA | -0.0881
171 | ACACAGTC | -0.0562
172 | CCGTCTAG | 0.177
